# Values marked as one replicate rest on one cluster of the flow cell; about a third of the high ones do not repeat.
# System: ATP
# Test: switch fluorescence ratio, 500 uM ATP over buffer (Cy3 cluster intensity, sum of 5 cycles each) (fold (ratio)); higher = stronger signal-on switching upon ATP binding; sequences stand for … in TCGTCGGCAGCGTCAGATGTGTATAAGAGACAGTTTTTTTTTTTTTTTTTTTTTTTTT…TC
# Settings: aptamer strand: ATP DNA aptamer (quencher-CACCTGGGGGAGTATTGCGGAGGAAGG + anchor), 100 nM annealed; ATP concentration: 500 uM; one replicate
# Method in brief: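 Cy3-labelled switching-strand clusters on a modified Illumina MiSeq flow-cell were annealed to 100 nM quencher-labelled ATP aptamer, imaged in selection buffer, then imaged after 15 min with 500 uM ATP at 22 °C. Five buffer/ATP cycles ran, with NaOH stripping and re-annealing between them. The fluorescence ratio is summed target-cycle over summed buffer-cycle Cy3 intensity per cluster, averaged per switch-domain sequence. Clusters outside 100-1000 RFU were excluded.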
# 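Note: ATP exposure 15 min at 22 °C before imaging.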
row,Sequence,switch fluorescence ratio
1,TCGCCTAAGT,1.01
2,ATTATGATTA,1
3,ATGAGCCGC,0.979
4,GTTTTGAGGC,1.03
5,GGGGTCTACT,1.02
6,ACTTAGAACT,1.03
7,GCGCGCATAA,0.98
8,CTAACGTCCT,0.996
9,TGGACCAAAT,0.984
10,TTCGTGCAGC,1.05
11,CCAGAAGGGA,1.01
12,CCTAGATCGT,0.958
13,CAATCATGAA,0.947
14,ACTGACCTAC,1.43
15,CACAACTCAA,1.02
16,ACAGCACCTT,1.3
17,ATTTTATTT,1.01
18,CCAACACATG,1.04
19,GTAATCTTTG,0.995
20,GCCCTAGGTT,1.18
21,GCTAAATTTA,0.978
22,CCCAAGGTAT,1.15
23,GAAGTTTGCG,0.968

row,Sequence,switch fluorescence ratio
1,ACAAATGAAT,1.19
2,CTAAACGTTG,0.966
3,ATCAATGTCA,1.02
4,CAAGAAAGGA,0.989
5,GAGAGCCCGT,1.01
6,TACGTCAGTT,1.01
7,CATATGGGAC,1.05
8,TTTTCAGTAT,1.01
9,AATGGGACTG,1.26
10,AGGGGATGCC,1.01
11,CTAGTGGACC,0.999
12,TTTCTCAAGG,0.968
13,TATGTGAAAC,1.04
14,TCCCGGTTCT,0.998
15,GGTGGACT,1.03
16,GGATACAGCT,0.976
17,CTAACTTTGA,0.983
18,AAAGCTAAGT,0.991
19,AAAAACCCGA,1.04
20,AGTTATAGTC,1
21,GTATGGTGAG,0.976
22,ACAGCCATTT,1.05
23,AAAAGGGGT,1.04

row,Sequence,switch fluorescence ratio
1,GTGGGACTCT,1.02
2,AAACATGCAT,1.03
3,AGATTTTCAG,1.03
4,GATCGCCTTA,1.08
5,AAGTAGGGAA,0.962
6,ATTAACGCTT,1.03
7,ATTTAGATGA,0.988
8,TAATCTGGAC,1.19
9,TGGGGCGCGT,1.02
10,ACGTAACAGC,1.28
11,CGGGTTCTCT,0.996
12,TAACATTCAC,1.18
13,CCGGCTATA,2.26
14,CTGCCCGGAG,1.33
15,CAGCGTTCCT,1.25
16,ATGAGCCCTA,0.995
17,TACGGGACTG,1.03
18,GGTTCAGTAC,1.17
19,ACAGTGGTAG,0.984
20,TAAGCTAAGA,0.998
21,AGGAGTAGAG,0.984
22,AGGTCAAAGC,0.986
23,AATTGGAACA,1.01

row,Sequence,switch fluorescence ratio
1,CTGCAGATGA,1.04
2,TAATGTTAAC,0.977
3,GCTTCGGGAA,1.13
4,TGGAGTCCAG,1.03
5,ACGTTGCGTG,1.05
6,TTGATGTCAT,0.989
7,GTGGGCCGCC,0.987
8,TAAGGAGATG,0.994
9,TGCAAAATCG,1
10,AGGGTTCTTA,0.982
11,CTACGAAGAC,4.74
12,TCCTAAGAA,1
13,ACAAGTTGAG,1.01
14,CTTGGTTATG,0.995
15,TAAAAGAATG,0.992
16,CTACCCATTG,1.02
17,ACCCCAGTC,1.27
18,CTAGGCCATT,1.02
19,GGGAGTGTAG,1.03
20,TATTATTCGG,0.956
21,CGGATCTGCC,0.993
22,TCGGATACCG,0.926
23,AATGGTACAC,1.05

row,Sequence,switch fluorescence ratio
1,GTACTGTTGA,0.972
2,TTATGCTCGG,1.01
3,CTGTATGTTA,0.955
4,AGCGCGTCAA,0.989
5,GCTTCCGATT,1.43
6,GGATTCGCGG,1.07
7,CAAATTCTCC,1.11
8,ATGCGACGTG,0.965
9,ATTATTGAT,0.992
10,GGGAGTACGG,0.988
11,TATATAGGGC,0.989
12,TCTACGACTC,1.19
13,AAGCTAGGTA,0.999
14,TCGTGAGTAA,1.08
15,GGCGAAACCC,1.03
16,ACACTTAGGA,1.03
17,AGAATATCAA,0.993
18,TGTTTATT,1.01
19,ATAAGATAAT,0.989
20,AGGACAGAGG,1.07
21,GATCGGGCAG,0.984
22,TTCGCATCCT,1.08
23,GAATGGAAG,0.959

row,Sequence,switch fluorescence ratio
1,CGCATTCGTA,1.02
2,CATATTAATT,1.02
3,TGCGTCTTGG,1.01
4,CACGTATCGA,1.08
5,GGGAACAGGA,1.01
6,TATTGAATAG,0.966
7,CTAGGTGTGC,1.04
8,ATTGATGAAA,1.04
9,CCTCCAAGGT,1.18
10,TGTTGGCGCC,1.09
11,TGGGCTTAAT,0.967
12,GAGTTATTAT,1.04
13,AATTTCAAAT,1
14,TAGTCTTCG,1.09
15,GCGGTTTTCG,0.974
16,AGGAGTGCTA,0.956
17,GGTGTCGCAA,1.04
18,AAAACACGCG,1.02
19,CAAACTTAGT,1.02
20,CTCTGGTTCG,0.989
21,GCCTAGAAGG,0.988
22,ACAGTGATTT,1.01
23,GAGTCCCCGT,1.01

row,Sequence,switch fluorescence ratio
1,AATAAAGTCA,1.04
2,GACGCGGGGA,1.43
3,CTAAACTCAT,1.03
4,AGGGGCAACA,1.05
5,GGTGTGAACC,0.958
6,TTTAGTACTA,0.957
7,TGAAAGGGGC,1.07
8,GGATCACCGG,1.05
9,CAAAACAGCC,1.09
10,AGATGGCGAG,0.98
11,GGTCTGAAGG,0.994
12,GGGTCTTCAA,1.02
13,CGTATTTGTT,1.02
14,AGTTGAGTTG,1.09
15,TGAGTTAGAA,0.986
16,TCAAGGCATC,1.06
17,TTCGAGCTAC,3.25
18,CCCTAATAAA,1.04
19,AGTACTGTTC,1.04

# From the supplement of paper PMC10126150
